We go through five molecules from ChEMBL document CHEMBL5303300, “EUbOPEN Chemogenomics Library - Multiplex” (2023).

What all share (format): toxicity, cell-based
For one data set, the system named is Fibroblast. Put plainly: Multiplex assay against human fibroblast. Particulars: 1 µM, compound concentration 1 uM, number of replicates 2. The method in brief:
(§1)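 Hoechst33342, BioTracker Green Microtubule Cytoskeleton Dye, MitoTracker Red and Annexin V Alexa Fluor 680 were added to live cells at seeding, and imaging on a CQ1 microscope at 37°C and 5% CO2 followed compound addition. Gating by CellPathfinder machine learning separated cells into Hoechst high-intensity objects or normal cells, then normal cells into healthy, pyknosed or fragmented nuclei, then pyknosed cells into mitotic or apoptotic. Per cents of healthy-nucleus cells are reported for the tubulin, mitochondrial-mass and membrane-permeability phenotypes.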

The subject of the next data set is HEK-293T. Briefly: Multiplex assay against HEK293T. Particulars: human, number of replicates 2. In short, it runs like this:
as §1

The subject of another data set is U2OS. Put plainly: Multiplex assay against U2OS. Particulars: human, number of replicates 2. In short, it runs like this:
as §1

[1] abbreviates: 48 h, 10 µM, compound concentration 10 uM.
Where [2] appears, read: 12 h, 1 µM, compound concentration 1 uM.
Setting [3] is: 12 h, 10 µM, compound concentration 10 uM.
Setting [4] is: 24 h, 1 µM, compound concentration 1 uM.
Where [5] appears, read: 24 h, 10 µM, compound concentration 10 uM.
[6] abbreviates: 48 h, 1 µM, compound concentration 1 uM.

The source holds more than one record for some entries. This list holds those alone. There may be further records. Results that share an entry are repeats across runs, samples, wells, individuals or studies.

As to `Br.Oc1cc2c(cc1O)C(c1ccccc1)CNCC2` (configuration not stated), the “Population Mitotic Cells (%)” value was 13% and 55% in the data set with Fibroblast (12 h); 10% and 45% in the data set with Fibroblast (48 h). The “Population Apoptotic (%)” value was 3% and 15% in the data set on HEK-293T (setting [1]); 0% and 50% in the data set on U2OS (setting [2]). For the same molecule, the “Total Cell Count” value is 50 and 286 with U2OS (setting [2]); 18 and 223 in the data set with U2OS (setting [3]); 49 and 385 with U2OS (setting [4]); 17 and 343 with U2OS (setting [5]); 98 and 728 in the data set with U2OS (setting [6]); 35 and 662 with U2OS (setting [1]). Further, the “Population Fragmented Nuclei (%)” value is 27% and 4% with U2OS (setting [3]); 17% and 2% with U2OS (setting [5]); 20% and 2% with U2OS (setting [1]). Moreover, the “Population Pyknosed Nuclei (%)” value is 38% and 10% with U2OS (setting [3]); 25% and 6% in the data set on U2OS (setting [1]).

For the molecule `CNC(=O)c1nn(C)c2c1C(C)(C)Cc1cnc(Nc3ccc(N4CCN(C)CC4)cc3)nc1-2` [MILCICLIB], the “Population Mitotic Cells (%)” value with HEK-293T (setting [3]) is listed as 28, 36, 5, 19%; in the data set with HEK-293T (setting [5]), 26, 16, 5, 29%. The “Population Fragmented Nuclei (%)” value in the data set on U2OS (setting [3]) is listed as 17, 14, 4, 3%; in the data set on U2OS (setting [5]) it was 14, 25, 3, 4%; with U2OS (setting [1]), 7, 33, 5, 8%. The “Population Membrane Permeable-Phenotype (%)” value is 45, 35, 12, 18% with U2OS (setting [3]) and 14, 50, 22, 20% with U2OS (setting [5]). The “Total Cell Count” value is recorded as 46, 41, 193, 200 in the data set with U2OS (setting [3]); 49, 44, 190, 187 in the data set on U2OS (setting [5]); 42, 45, 172, 186 in the data set on U2OS (setting [1]).

Take `O=S(=O)(c1ccccc1)N(CC(F)(F)F)c1ccc(C(O)(C(F)(F)F)C(F)(F)F)cc1` [T091317]: the “Population Apoptotic (%)” value in the data set with HEK-293T (setting [6]) was 9% and 31%. Besides, the “Population Fragmented Nuclei (%)” value with U2OS (setting [2]) was 27% and 4%; in the data set on U2OS (setting [3]), 35% and 6%; in the data set on U2OS (setting [4]), 36% and 4%; in the data set on U2OS (setting [5]), 20% and 5%; with U2OS (setting [6]), 24% and 2%. In addition, the “Population Membrane Permeable-Phenotype (%)” value with U2OS (setting [2]) is 16% and 1%; in the data set on U2OS (setting [4]) it was 13% and 1%. Moreover, the “Total Cell Count” value in the data set on U2OS (setting [2]) is 41 and 224; in the data set with U2OS (setting [3]), 39 and 183; with U2OS (setting [4]) it was 65 and 326; with U2OS (setting [5]), 49 and 217; in the data set on U2OS (setting [6]) it was 63 and 643; in the data set with U2OS (setting [1]), 317 and 65. For the same molecule, the “Population Mitotic Cells (%)” value with U2OS (setting [4]) was 0% and 43%.

For `CN(C)C/C=C/C(=O)Nc1cccc(S(=O)(=O)N2CCC(NC(=O)c3n[nH]cc3NC(=O)c3c(Cl)cc(Cl)cc3Cl)CC2)c1`, the “Population Mitochondria Different-Phenotype (%)” value with Fibroblast (48 h) was 1% and 13%; in the data set on U2OS (setting [2]) it was 5% and 23%; in the data set on U2OS (setting [6]), 0% and 46%. For the same molecule, the “Population Mitotic Cells (%)” value in the data set on HEK-293T (setting [6]) was 7% and 26%; in the data set on U2OS (setting [4]) it was 34% and 6%; in the data set with U2OS (setting [6]), 23% and 2%. Besides, the “Total Cell Count” value was 40 and 161 in the data set on U2OS (setting [2]); 206 and 53 in the data set on U2OS (setting [3]); 51 and 166 in the data set with U2OS (setting [4]); 45 and 186 with U2OS (setting [5]); 45 and 172 with U2OS (setting [6]); 43 and 175 in the data set with U2OS (setting [1]). Further, in the data set with U2OS (setting [6]), the “Population Fragmented Nuclei (%)” value is 30% and 7%. Also, the “Population Membrane Permeable-Phenotype (%)” value in the data set with U2OS (setting [6]) is 0% and 35%.

As to `N[C@@H]1c2cccnc2[C@H](OC(=O)N2CCC(n3c(=O)[nH]c4ncccc43)CC2)CC[C@H]1c1cccc(F)c1F` [RIMEGEPANT], in the data set on Fibroblast (24 h), the “Population Fragmented Nuclei (%)” value is 4% and 20%. The “Population Mitochondria Different-Phenotype (%)” value in the data set with HEK-293T (setting [5]) is 27% and 7%. Besides, the “Total Cell Count” value was 53 and 243 with U2OS (setting [2]); 42 and 248 with U2OS (setting [3]); 57 and 338 with U2OS (setting [4]); 48 and 367 in the data set on U2OS (setting [5]); 92 and 659 in the data set on U2OS (setting [6]); 57 and 614 in the data set on U2OS (setting [1]).
